Test results taken from PubChem BioAssay AID652104 (National Center for Advancing Translational Sciences (NCATS), 2013).
Hit rate of the full screen: of about 410,000 compounds, about 7,200 (1.8%) were called active. The shares of active, inactive and inconclusive entries below differ from those in the screen. Calls follow the shape of the dose curve; as a rule, active = well fitted activation curve with a large enough effect; inconclusive = small, poorly fitted or top-dose-only effect, or another doubt; inactive = no such curve, though single readings can be large or run the other way. No potency is given beside an inconclusive call; the fits are too rough.

test: qHTS of TDP-43 Inhibitors; details: TDP-43 expressing yeast growth rescue, BacTiter-Glo, 24 h; growth rescue (activation): at 46.1 µM (top of the series) unless noted; also: nearly all actives have a fitted effect of over 50% in size; as to growth rescue (activation): % of control where 0% means no effect
Summary of the method: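 Yeast cells expressing TDP-43 under galactose induction are exposed to compounds for 24 hr at 30 deg C. BacTiter-Glo luminescence measures growth, so protective compounds score as activators.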
Potency is read from the fitted curve at half-maximal effect; tags tell the direction and shape of the fitted curve.

Compound | Potency | growth rescue (activation)
Cc1ccc(C(=O)NC(=S)NNC(=O)COc2ccc([N+](=O)[O-])cc2)cc1 | active: 20 µM | –
O=C(COC(=O)CNC(=O)c1ccc(Cl)cc1Cl)NC1CC1 | inactive | –
N#CC1c2ccccc2-c2ccccc2N1C(=O)c1ccccc1 (centres undefined) | active: 28.2 µM | –
CCCc1nccn1S(=O)(=O)c1cc(Br)ccc1OC | inconclusive [activator, partial curve] | –
COc1ccc(-n2ncc3c(NCC(C)C)ncnc32)cc1 | active: 11.2 µM | –
CC(=O)Nc1cccc(Oc2ncnc3scc(-c4ccc(C(C)C)cc4)c23)c1 | inconclusive [activator, partial curve] | –
COc1ccc(/C=C/C(=O)c2ccc(Cl)cc2)c(OC)c1 | inconclusive [activator, single point] | –
COc1ccccc1NC(=O)CSC1=Nc2ccccc2N=C(c2ccc(F)cc2)C1 | inactive | –
CCn1cc(C(=O)OCC(=O)N2C(C)CCCC2C)c(=O)c2ccc(C)nc21 (centres undefined) | inactive | –
O=C(c1ccc(Cl)cc1)N1CCC(C(=O)N2CCN(c3ncccn3)CC2)CC1 | inconclusive [activator, partial curve, poor fit] | –
O=C(O)C1CCC2CCCC21 (centres undefined) | inconclusive [activator, single point] | –
COc1cc(CC(=O)OCc2cccc([N+](=O)[O-])c2)cc(OC)c1OC | inconclusive [activator, single point] | –
CCOC(=O)c1sc2nc(C3CC3)cc(-c3ccc(F)cc3)c2c1N | inconclusive [activator, partial curve] | –
CC(=O)Nc1ccc(C2=CC(=O)C[C@H](c3ccc(Cl)cc3)C2)cc1 | active: 35.5 µM | –
CC[N+]1(C)[C@@H]2CC[C@H]1CC(OC(=O)[C@H]1CCC(C(=O)OC3C[C@H]4CC[C@@H](C3)[N+]4(C)CC)(c3ccccc3)c3ccccc31)C2 (some centres undefined) | inconclusive [activator, partial curve, poor fit] | –
COc1ccc(C)cc1NC(=O)CCn1nc(C)cc1C | inactive | –
Cc1ccc(-n2c(Cl)c(Cl)nc(Cl)c2=O)cc1 | – | inconclusive: -94.6% [activator]
O=C(CSc1nc2ccccc2n1-c1ccccc1)Nc1ncc(Cl)cc1Cl | active: 22.4 µM | –
CC(C)CNc1oc(-c2ccco2)nc1C#N | inconclusive [activator, single point] | –
O=C(NC(=S)NCCSc1ccccc1)c1cccnc1 | inconclusive [activator, partial curve] | –
O=C1C=C(c2ccccc2)CC(c2ccc(F)cc2)C1 (centres undefined) | inconclusive [activator, single point] | –
N/C(=N\OC(=O)Cc1ccc(Cl)cc1)c1ccccn1 | inconclusive [activator, single point] | –
COc1ccc2c(CC(=O)NNC(=O)c3ccc(C)cc3)coc2c1 | inactive | –
Cc1ccccc1OCCCc1c(C)n[nH]c1C | active: 20 µM | –
Cc1ccc(-c2nonc2NC(=O)c2ccco2)cc1C | active: 20 µM | –

Compound | Potency | growth rescue (activation)
Cc1ccc(-c2nc3ccccc3[nH]2)cc1NC(=O)COc1cccc(C)c1C | inconclusive [activator, single point] | –
COc1ccccc1N1C(=O)C(Cl)=C(Nc2ccccc2O)C1=O | inconclusive [activator, single point] | –
COc1c(C=O)cc2c3c1CCCN3CCC2 | inconclusive [activator, partial curve] | –
Cc1nc2ccccc2nc1OCc1cccc(Cl)c1 | active: 12.6 µM | –
CCOc1ccccc1NC(=O)COc1cccnc1[N+](=O)[O-] | inconclusive [activator, single point] | –
O=C(CSc1ncnc2c1oc1ccccc12)NCc1ccco1 | inconclusive [activator, single point] | –
COc1cccc(C(=O)NC(C)c2cccc3ccccc23)c1OC (centres undefined) | inconclusive [activator, single point] | –
C/C(=N\Nc1ccccn1)c1ccc(C#N)cc1 | inconclusive [activator, single point] | –
COc1ccccc1OCC#CCNC1CCCCC1C (centres undefined) | inactive | –
Cc1cc(NC(=O)COC(=O)c2ccccc2Cl)no1 | inconclusive [activator, partial curve, poor fit] | –
COc1ccc(-c2cc(=O)oc3c(C)c(OC(C)C(=O)NCc4ccccn4)ccc23)cc1 (centres undefined) | inconclusive [activator, full curve, poor fit] | –
Cc1cc(C)cc(NC(=O)c2sc3nc(C)cc(C)c3c2N)c1 | inconclusive [activator, partial curve] | –
N/C(=N\OC(=O)c1cccc(Cl)c1)c1ccccn1 | – | inconclusive: -52.8% [activator]
O=C(COC(=O)c1ccc([N+](=O)[O-])o1)NCc1ccccc1 | inconclusive [activator, partial curve] | –
COc1ccc(CCNC(=O)CSc2ccc3nnc(CCNC(=O)c4ccc(C)cc4)n3n2)cc1OC | inactive | –
CCOc1ccc(NC(=S)Nc2cc(OC)c(Cl)cc2OC)cc1 | inconclusive [activator, partial curve] | –
COc1ccc(NC(=O)CSC2=Nc3ccccc3C3=NC(CCC(=O)NCCc4ccccc4)C(=O)N23)c(OC)c1 (centres undefined) | inconclusive [activator, partial curve] | –
N#Cc1ccncc1Sc1ccc(Cl)cc1 | active: 17.8 µM | –
Cc1cccc(S(=O)(=O)NC(=O)C2(C)CCN2C(=O)c2ccccc2CCc2ccccc2)c1 (centres undefined) | active: 15.8 µM | –
Cc1ccc2c(c1)c1ncnc(N3CCN(c4ccccc4)CC3)c1n2C | inconclusive [activator, partial curve] | –
Cc1ccc(-c2ccc(CN3C(C(C)C)C(=O)N(Cc4cn(CCC5OCCCO5)nn4)CCS3(=O)=O)cc2)cc1 (centres undefined) | active: 35.5 µM | –
O=C(NCc1cccc2ccccc12)c1cccs1 | active: 12.6 µM | –
COc1cc(OC)c2c(-c3cccc(-c4cccc(N)c4)c3)cc(=O)oc2c1 | inconclusive [activator, single point] | –
COc1ccc(OCCC(=O)OCC(=O)Nc2cccc(Br)c2)cc1 | inconclusive [activator, partial curve] | –
Cc1cc(NC(=O)c2ccc(Cl)cc2Cl)n(-c2ccccc2)n1 | active: 20 µM | –

Compound | Potency | growth rescue (activation)
O=C(NCCc1csc(-c2ccc(F)cc2)n1)c1c(F)cccc1Cl | active: 12.6 µM | –
COC(=O)[C@]12CCCCC=C1N(CCC1=CCCCC1)C(=O)[C@H](CC(=O)NCCC(C)C)C2 | inconclusive [activator, single point] | –
Cc1cc(C)c(S(=O)(=O)NCCc2ccccc2)c(C)c1 | inactive | –
CC12CCC(=O)C=C1CCC1C2CCC2(C)C1CC1C3C(=O)N(Cc4ccccc4)C(=O)C3CC(=O)C12 (centres undefined) | inconclusive [activator, single point] | –
CN(C(=O)CSc1nc2ccccc2n1Cc1cccc(C(F)(F)F)c1)c1ccccc1 | inactive | –
O=C(Nc1ccc(N2CCCCC2)c(Cl)c1)c1ccc2c(c1)OCCO2 | inconclusive [activator, single point] | –
Cc1cccc(Cn2c(=O)oc3ccc(C)cc32)c1 | active: 20 µM | –
CCOc1ccc(C2=CC(c3cc(Br)ccc3F)n3ncnc3N2)cc1Cl (centres undefined) | active: 35.5 µM | –
CC1CCc2[nH]c3ccc(C(=O)O)cc3c2C1 (centres undefined) | inconclusive [activator, single point] | –
Cc1ccc(-c2cc(C(=O)NCCCN3CCOCC3)c3ccccc3n2)cc1 | inactive | –
Cc1cccc(C)c1Cn1c(C)c(C(=O)NCc2ccc(C#N)cc2)sc1=O | inconclusive [activator, single point] | –
O=c1oc(C2(O)CCCCC2)cc2ccc(Br)cc12 | inconclusive [activator, partial curve] | –
O=[N+]([O-])c1ccc(Oc2cccc3cccnc23)c(Cl)c1 | inconclusive [activator, single point] | –
CCOC(=O)C(C)n1cnc2scc(-c3ccc(C)c(C)c3)c2c1=O (centres undefined) | inconclusive [activator, partial curve] | –
Cc1ccc(C2=NN(CC(=O)NCCc3ccc(Cl)cc3)C(=O)CC2)cc1 | inconclusive [activator, single point] | –
COCCc1ncc(CN2CCC(C(=O)Nc3cccc(-c4cscn4)c3)CC2)cn1 | inconclusive [activator, single point] | –
CCCCCCC(C)n1cc(C(C)=O)c(=O)[nH]c1=O (centres undefined) | inconclusive [activator, full curve] | –
COc1cccc(CNc2nc(C(F)(F)F)nc3ccccc23)c1 | inconclusive [activator, single point] | –
COc1ccccc1OCC(=O)/C=C1/N(C)c2ccccc2C1(C)C | active: 14.1 µM | –
Cc1nc2ccc(NC(=O)Cc3cccc(F)c3)cc2s1 | inactive | –
CCOc1ccc(-c2nc(CSc3nncs3)cs2)cc1OC | inconclusive [activator, partial curve] | –
Cc1nn(-c2ccccc2)c(Cl)c1C(=O)Nc1ccccc1 | active: 11.2 µM | –
Nc1ccc2nc(CN3CCOCC3)[nH]c2c1 | inactive | –
O=C(Nc1ccc2c(c1)OCO2)C1CC1(Cl)Cl (centres undefined) | inconclusive [activator, partial curve] | –
